# Some of the results follow.
# B1: Si Bti9 1b-V5-his (Solanum lycopersicum) (protein)
# chain: MQCNRGCDLALASFYVWRGSNLTLISEMFSTSIADIVSYNNRDNIPNQDSVIAGTRINIPFRCDCLNDGEVLGHAFPYRVKSGDTYDLVARNYSDLTTAQWMMKFNSYPENNIPNTVNLSVVVNCSCGNSDVSKDFGLFVTYPVRAEDNLTSVASAANVSEDIIRRYNPAAVSILDIGQGIIYIPGRDRNGNFPPLPTSTDGLSGGAKKGGRADPAFLYKVVINSKLEGKPIPNPLLGLDSTRTGHHHHHH
# Legend:
# Assay in all cases: glycan array binding signal (z-score within array); higher = stronger binding
# Details in all cases: glycan notation: IUPAC condensed, linker removed
# [1] = target: GlcNAc(b1-2)Gal(b1-3)GalNAc
# In short: (§1)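 Glycan array data came from 3228 arrays in the Consortium for Functional Glycomics database, and only arrays with an available protein sequence were kept. Glycan names were put into IUPAC-condensed notation, and columns mapping to the same glycan were averaged. The binding signal is a within-array Z-score, averaged across arrays of one protein sequence run at different concentrations or buffers and across linkers. A negative Z-score can be read as non-binding.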
# [2] = target: GlcNAc(b1-2)Man(a1-3)[GlcNAc(b1-2)Man(a1-6)]Man(b1-4)GlcNAc(b1-4)GlcNAc
# In short: as §1
# [3] = target: GlcNAc(b1-2)Man(a1-3)[GlcNAc(b1-2)Man(a1-6)]Man(b1-4)GlcNAc(b1-4)[Fuc(a1-6)]GlcNAc
# In short: as §1
# [4] = target: GlcNAc(b1-2)Man(a1-3)[GlcNAc(b1-4)][GlcNAc(b1-2)Man(a1-6)]Man(b1-4)GlcNAc(b1-4)GlcNAc
# In short: as §1
# [5] = target: GlcNAc(b1-2)Man(a1-3)[GlcNAc(b1-4)][GlcNAc(b1-2)Man(a1-6)]Man(b1-4)GlcNAc(b1-4)[Fuc(a1-6)]GlcNAc
# In short: as §1
# [6] = target: GlcNAc(b1-2)[GlcNAc(b1-4)]Man(a1-3)[GlcNAc(b1-2)Man(a1-6)]Man(b1-4)GlcNAc(b1-4)GlcNAc
# In short: as §1
# [7] = target: GlcNAc(b1-2)[GlcNAc(b1-4)]Man(a1-3)[GlcNAc(b1-4)][GlcNAc(b1-2)Man(a1-6)]Man(b1-4)GlcNAc(b1-4)GlcNAc
# In short: as §1
# [8] = target: GlcNAc(b1-2)[GlcNAc(b1-4)]Man(a1-3)[GlcNAc(b1-4)][GlcNAc(b1-2)[GlcNAc(b1-6)]Man(a1-6)]Man(b1-4)GlcNAc(b1-4)GlcNAc
# In short: as §1
# [9] = target: GlcNAc(b1-2)[GlcNAc(b1-4)]Man(a1-3)[GlcNAc(b1-4)][GlcNAc(b1-2)[GlcNAc(b1-6)]Man(a1-6)]Man(b1-4)GlcNAc(b1-4)[Fuc(a1-6)]GlcNAc
# In short: as §1
# [10] = target: GlcNAc(b1-2)[GlcNAc(b1-6)]Man(a1-6)[GlcNAc(b1-2)Man(a1-3)]Man(b1-4)GlcNAc(b1-4)GlcNAc
# In short: as §1
# [11] = target: GlcNAc(b1-2)[GlcNAc(b1-6)]Man(a1-6)[GlcNAc(b1-2)Man(a1-3)]Man(b1-4)GlcNAc(b1-4)[Fuc(a1-6)]GlcNAc
# In short: as §1
# [12] = target: GlcNAc(b1-2)[GlcNAc(b1-6)]Man(a1-6)[GlcNAc(b1-4)][GlcNAc(b1-2)Man(a1-3)]Man(b1-4)GlcNAc(b1-4)GlcNAc
# In short: as §1
# GlcNAc(b1-3)Fuc = target: GlcNAc(b1-3)Fuc
# In short: as §1
# GlcNAc(b1-3)Gal = target: GlcNAc(b1-3)Gal
# In short: as §1
# [13] = target: GlcNAc(b1-3)Gal(b1-3)GalNAc
# In short: as §1
# GlcNAc(b1-3)Gal(b1-4)Glc = target: GlcNAc(b1-3)Gal(b1-4)Glc
# In short: as §1
# [14] = target: GlcNAc(b1-3)Gal(b1-4)GlcNAc
# In short: as §1
# [15] = target: GlcNAc(b1-3)Gal(b1-4)GlcNAc(b1-2)Man(a1-3)[GlcNAc(b1-3)Gal(b1-4)GlcNAc(b1-2)Man(a1-6)]Man(b1-4)GlcNAc(b1-4)GlcNAc
# In short: as §1
# [16] = target: GlcNAc(b1-3)Gal(b1-4)GlcNAc(b1-2)Man(a1-3)[GlcNAc(b1-3)Gal(b1-4)GlcNAc(b1-2)Man(a1-6)]Man(b1-4)GlcNAc(b1-4)[Fuc(a1-6)]GlcNAc
# In short: as §1
# [17] = target: GlcNAc(b1-3)Gal(b1-4)GlcNAc(b1-2)[GlcNAc(b1-3)Gal(b1-4)GlcNAc(b1-6)]Man(a1-6)[GlcNAc(b1-3)Gal(b1-4)GlcNAc(b1-2)Man(a1-3)]Man(b1-4)GlcNAc(b1-4)GlcNAc
# In short: as §1
# [18] = target: GlcNAc(b1-3)Gal(b1-4)GlcNAc(b1-3)Gal(b1-4)GlcNAc
# In short: as §1
# [19] = target: GlcNAc(b1-3)Gal(b1-4)GlcNAc(b1-3)Gal(b1-4)GlcNAc(b1-2)Man(a1-3)[GlcNAc(b1-3)Gal(b1-4)GlcNAc(b1-3)Gal(b1-4)GlcNAc(b1-2)Man(a1-6)]Man(b1-4)GlcNAc(b1-4)GlcNAc
# In short: as §1
# [20] = target: GlcNAc(b1-3)Gal(b1-4)GlcNAc(b1-3)Gal(b1-4)GlcNAc(b1-2)Man(a1-3)[GlcNAc(b1-3)Gal(b1-4)GlcNAc(b1-3)Gal(b1-4)GlcNAc(b1-2)Man(a1-6)]Man(b1-4)GlcNAc(b1-4)[Fuc(a1-6)]GlcNAc
# In short: as §1
# [21] = target: GlcNAc(b1-3)Gal(b1-4)GlcNAc(b1-3)Gal(b1-4)GlcNAc(b1-2)[GlcNAc(b1-3)Gal(b1-4)GlcNAc(b1-3)Gal(b1-4)GlcNAc(b1-6)]Man(a1-6)[GlcNAc(b1-3)Gal(b1-4)GlcNAc(b1-3)Gal(b1-4)GlcNAc(b1-2)Man(a1-3)]Man(b1-4)GlcNAc(b1-4)[Fuc(a1-6)]GlcNAc
# In short: as §1
# [22] = target: GlcNAc(b1-3)Gal(b1-4)GlcNAc(b1-3)Gal(b1-4)GlcNAc(b1-3)Gal(b1-4)GlcNAc(b1-2)Man(a1-3)[GlcNAc(b1-3)Gal(b1-4)GlcNAc(b1-3)Gal(b1-4)GlcNAc(b1-3)Gal(b1-4)GlcNAc(b1-2)Man(a1-6)]Man(b1-4)GlcNAc(b1-4)GlcNAc
# In short: as §1
# [23] = target: GlcNAc(b1-3)Gal(b1-4)GlcNAc(b1-3)Gal(b1-4)GlcNAc(b1-3)Gal(b1-4)GlcNAc(b1-2)Man(a1-3)[GlcNAc(b1-3)Gal(b1-4)GlcNAc(b1-3)Gal(b1-4)GlcNAc(b1-3)Gal(b1-4)GlcNAc(b1-2)Man(a1-6)]Man(b1-4)GlcNAc(b1-4)[Fuc(a1-6)]GlcNAc
# In short: as §1
# [24] = target: GlcNAc(b1-3)Gal(b1-4)GlcNAc(b1-3)Gal(b1-4)GlcNAc(b1-3)Gal(b1-4)GlcNAc(b1-2)[GlcNAc(b1-3)Gal(b1-4)GlcNAc(b1-3)Gal(b1-4)GlcNAc(b1-3)Gal(b1-4)GlcNAc(b1-6)]Man(a1-6)[GlcNAc(b1-3)Gal(b1-4)GlcNAc(b1-3)Gal(b1-4)GlcNAc(b1-3)Gal(b1-4)GlcNAc(b1-2)Man(a1-3)]Man(b1-4)GlcNAc(b1-4)[Fuc(a1-6)]GlcNAc
# In short: as §1
# [25] = target: GlcNAc(b1-3)Gal(b1-4)GlcNAc(b1-3)Gal(b1-4)GlcNAc(b1-3)Gal(b1-4)GlcNAc(b1-3)Gal(b1-4)GlcNAc(b1-2)Man(a1-3)[GlcNAc(b1-3)Gal(b1-4)GlcNAc(b1-3)Gal(b1-4)GlcNAc(b1-3)Gal(b1-4)GlcNAc(b1-3)Gal(b1-4)GlcNAc(b1-2)Man(a1-6)]Man(b1-4)GlcNAc(b1-4)GlcNAc
# In short: as §1
# [26] = target: GlcNAc(b1-3)Gal(b1-4)GlcNAc(b1-3)Gal(b1-4)GlcNAc(b1-3)Gal(b1-4)GlcNAc(b1-3)Gal(b1-4)GlcNAc(b1-2)Man(a1-3)[GlcNAc(b1-3)Gal(b1-4)GlcNAc(b1-3)Gal(b1-4)GlcNAc(b1-3)Gal(b1-4)GlcNAc(b1-3)Gal(b1-4)GlcNAc(b1-2)Man(a1-6)]Man(b1-4)GlcNAc(b1-4)[Fuc(a1-6)]GlcNAc
# In short: as §1
# [27] = target: GlcNAc(b1-3)Gal(b1-4)GlcNAc(b1-3)Gal(b1-4)GlcNAc(b1-3)Gal(b1-4)GlcNAc(b1-3)Gal(b1-4)GlcNAc(b1-2)[GlcNAc(b1-3)Gal(b1-4)GlcNAc(b1-3)Gal(b1-4)GlcNAc(b1-3)Gal(b1-4)GlcNAc(b1-3)Gal(b1-4)GlcNAc(b1-6)]Man(a1-6)[GlcNAc(b1-3)Gal(b1-4)GlcNAc(b1-3)Gal(b1-4)GlcNAc(b1-3)Gal(b1-4)GlcNAc(b1-3)Gal(b1-4)GlcNAc(b1-2)Man(a1-3)]Man(b1-4)GlcNAc(b1-4)[Fuc(a1-6)]GlcNAc
# In short: as §1
# [28] = target: GlcNAc(b1-3)Gal(b1-4)GlcNAc(b1-3)Gal(b1-4)GlcNAc(b1-3)GalNAc
# In short: as §1
# [29] = target: GlcNAc(b1-3)Gal(b1-4)GlcNAc(b1-3)GalNAc
# In short: as §1
# [30] = target: GlcNAc(b1-3)Gal(b1-4)GlcNAc(b1-3)[GlcNAc(b1-3)Gal(b1-4)GlcNAc(b1-3)]GalNAc
# In short: as §1
# [31] = target: GlcNAc(b1-3)Gal(b1-4)GlcNAc(b1-6)[Gal(b1-3)]GalNAc
# In short: as §1
# [32] = target: GlcNAc(b1-3)Gal(b1-4)GlcNAc(b1-6)[GlcNAc(b1-3)Gal(b1-3)]GalNAc
# In short: as §1
# [33] = target: GlcNAc(b1-3)Gal(b1-4)GlcNAc(b1-6)[GlcNAc(b1-3)]Gal(b1-4)GlcNAc
# In short: as §1
# GlcNAc(b1-3)GalNAc = target: GlcNAc(b1-3)GalNAc
# In short: as §1
binder,measurement,setting,value
B1,glycan array binding signal (z-score),[1],-0.219
same,glycan array binding signal (z-score),[2],0.03
same,glycan array binding signal (z-score),[3],0.243
same,glycan array binding signal (z-score),[4],-0.255
same,glycan array binding signal (z-score),[5],-0.171
same,glycan array binding signal (z-score),[6],-0.289
same,glycan array binding signal (z-score),[7],-0.312
same,glycan array binding signal (z-score),[8],-0.132
same,glycan array binding signal (z-score),[9],-0.284
same,glycan array binding signal (z-score),[10],-0.355
same,glycan array binding signal (z-score),[11],-0.344
same,glycan array binding signal (z-score),[12],-0.329
same,glycan array binding signal (z-score),GlcNAc(b1-3)Fuc,-0.153
same,glycan array binding signal (z-score),GlcNAc(b1-3)Gal,-0.309
same,glycan array binding signal (z-score),[13],-0.253
same,glycan array binding signal (z-score),GlcNAc(b1-3)Gal(b1-4)Glc,-0.248
same,glycan array binding signal (z-score),[14],-0.298
same,glycan array binding signal (z-score),[15],-0.252
same,glycan array binding signal (z-score),[16],0.087
same,glycan array binding signal (z-score),[17],-0.015
same,glycan array binding signal (z-score),[18],-0.345
same,glycan array binding signal (z-score),[19],0.248
same,glycan array binding signal (z-score),[20],0.336
same,glycan array binding signal (z-score),[21],-0.178
same,glycan array binding signal (z-score),[22],3.41
same,glycan array binding signal (z-score),[23],-0.116
same,glycan array binding signal (z-score),[24],-0.191
same,glycan array binding signal (z-score),[25],-0.24
same,glycan array binding signal (z-score),[26],-0.239
same,glycan array binding signal (z-score),[27],0.862
same,glycan array binding signal (z-score),[28],-0.225
same,glycan array binding signal (z-score),[29],-0.146
same,glycan array binding signal (z-score),[30],-0.113
same,glycan array binding signal (z-score),[31],-0.323
same,glycan array binding signal (z-score),[32],-0.151
same,glycan array binding signal (z-score),[33],-0.14
same,glycan array binding signal (z-score),GlcNAc(b1-3)GalNAc,-0.322
